B1: tRNA (parent)
chain: CUCUCGGUAGCCAAGUUGGUUUAAGGCGCAAGACUUUAAUUUAUCACUACGAAAUCUUGAGAUCGGGCGUUCGACUCGCCCCCGGGAGAUUUUUUCCUCGAGCAA

Variants at the background level are over-represented here.

Variants of B1 are the subject of this data set. Description: nonsense suppression (GFP-seq) (ratio to wild type); higher = more function; SUP4oc tRNA, yeast GFP reporter sort-seq. A digest of the protocol: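 Sorted GFP/RFP bins of yeast were each Illumina-sequenced with a phred ≥30 cutoff; the cells held a genome-integrated ochre-suppressor tRNA variant from a library with ~3% random mutations, a galactose-driven GFP ochre reporter, and RFP. Culture was in raffinose/galactose medium containing 80 mg/L adenine. Nonsense suppression, termed GFPSEQ, is the median GFP/RFP of the bins weighted by each variant's estimated cell share per bin, relative to the unmutated parent tRNA, for variants reaching ≥100 reads and ≥30 cells.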
With A54C U63G A89C, the nonsense suppression is at most 0.026. The result for A24G C56A G59A reads at most 0.026; that for U22C G78U C81G, at most 0.026; that for G6U G65A, at most 0.026. In the case of G6U G65C it was at most 0.026; in that of A33U C64G, at most 0.026.

Turning to A54C C68U U70A U76C, the nonsense suppression is at most 0.026.

With A62G G67U U70G, the nonsense suppression is at most 0.026. The result for C1G C83A G86C reads at most 0.026; that for U8C A9U A13U, at most 0.026; that for G7A U8A C11G G73C A87U, at most 0.026.

As to A14C G32U G85U, the nonsense suppression was at most 0.026. The result for G84C A87C reads at most 0.026; that for U58G U70A C79A, at most 0.026. Take C29G C68U: the nonsense suppression was at most 0.026. The result for G10U U55C reads 0.0469; that for G10U U55A, at most 0.026.

C11G A23G G86A: the nonsense suppression is at most 0.026.

Turning to C11G U16A C29U U57A C68U, the nonsense suppression was at most 0.026. In the case of A33U U71A G78U C82U it was at most 0.026; in that of U4A G18A, at most 0.026.

Regarding C11A A60U, the nonsense suppression is at most 0.026. The result for A9C A74C U76C A87G reads at most 0.026; that for C12U U35A C77U, at most 0.026; that for C56G U76A G78C, at most 0.026. The result for A30U C81G reads at most 0.026; that for G10U C12A C80A, at most 0.026. As for U55A G85C, the nonsense suppression was at most 0.026.

Turning to C1G C11U, the nonsense suppression is at most 0.026. In the case of C3U U63G it was at most 0.026. In the case of U2C U76G it was at most 0.026; in that of G10C U70A, at most 0.026; in that of U20A C29G A33U C82G, at most 0.026.

As to U2G C27G A31G C64G C72G G86A, the nonsense suppression is at most 0.026. Take A30U G78U: the nonsense suppression is at most 0.026. In the case of U17C C82G it was at most 0.026; in that of A24U G85A A89C, at most 0.026. On to U8A A9U U21G C64A, for which the nonsense suppression is at most 0.026. The result for U22A A24G C83G reads at most 0.026. The result for C34A A54C G73C U76G G86C reads at most 0.026; that for C1A A33G A54C, at most 0.026; that for G7U G15U G84U, at most 0.026. The result for C80A C83U reads at most 0.026; that for C3U C27G G61A G69C, at most 0.026; that for U8A G32A A89C, at most 0.026. As to U20G A23C A33G, the nonsense suppression was at most 0.026. With U8A C82A, the nonsense suppression was at most 0.026. The result for A62U U76A C82U reads at most 0.026.

On to C1A A14U U17A, for which the nonsense suppression is at most 0.026.

In the case of G32U G59U G61U, the nonsense suppression is at most 0.026. In the case of C27U U58A it was at most 0.026; in that of U4G A24U A54G C56G, at most 0.026.

Take G61U A89C: the nonsense suppression was at most 0.026. The result for A13G U20A U22C reads at most 0.026; that for U8G A24U, at most 0.026. The result for G6U U17C A24U G61C reads at most 0.026; that for C5G G10C U57C, at most 0.026; that for G26A C77G, at most 0.026. For the variant G7U C27A U57A G84U, the nonsense suppression is at most 0.026. In the case of U17A G28U it was at most 0.026; in that of G86C, at most 0.026. Turning to U17A A23U C29A, the nonsense suppression was at most 0.026. With G15C A62G C80U, the nonsense suppression is at most 0.026. For G32U A54C, the nonsense suppression is at most 0.026.

As to C27G G67U U71A, the nonsense suppression was at most 0.026. The result for G7U A54G reads at most 0.026. The result for C5U U21A C34U reads at most 0.026; that for C5A C11G C27U G28A U70C, at most 0.026; that for G15A G19U A23U G28A U55C U58G G59C, at most 0.026. In the case of G19C C29G G69A C72A it was at most 0.026; in that of G10A G61A, at most 0.026; in that of U8C A62G G88C, at most 0.026.

For C1A U2A G32C G69A, the nonsense suppression was at most 0.026.

For the variant G7U U21G A23U C79G, the nonsense suppression was at most 0.026.

For A62U C64A, the nonsense suppression was at most 0.026. The result for U4A U58A reads at most 0.026. As for A33U C34U G61A C64A, the nonsense suppression is at most 0.026.

Take C12G A89C: the nonsense suppression is at most 0.026. C12G U16A G25U A62C U71A C79G: the nonsense suppression is at most 0.026. In the case of C11U A13C C29A A54G C75A it was at most 0.026; in that of U2G C11G C29A U71C G73C, at most 0.026; in that of U2C G7C U20G G61C, at most 0.026.

In the case of C1A C12G A13C U20C U21G A24G, the nonsense suppression is at most 0.026. In the case of C34A C75G it was at most 0.026. The result for C5U G15C U16A A23G U58G reads at most 0.026; that for U2A C77A, at most 0.026. The result for G10A U22G G25A G61A G66C reads at most 0.026; that for U20G U76A, at most 0.026; that for U8G A13C G86A, at most 0.026.

As to G69A A74C C79G, the nonsense suppression was at most 0.026. The result for A9G A13C U16C A33G reads at most 0.026; that for U17G A62G, at most 0.026. The result for G7U C12G A31G U57C C77A reads at most 0.026; that for C27G U58G A62C G78U, at most 0.026. In the case of C3A A54G, the nonsense suppression is at most 0.026. In the case of U21G A54U C75U it was 1.23; in that of A62C C64U G84C, at most 0.026; in that of G7C U70A, at most 0.026. In the case of C72U C79A it was at most 0.026. The result for A9U G19C C72G reads at most 0.026; that for U20G C83G G86A, at most 0.026. Consider U17G A31G, for which the nonsense suppression is 1.15. In the case of G6U C11G it was at most 0.026. In the case of U55G C56U it was at most 0.026; in that of A60G C83G, at most 0.026. Take G25U: the nonsense suppression was at most 0.026. The result for U8A G26U C72U reads at most 0.026; that for A33G G66C, 0.0263; that for U4G A13C U35G G61A A74C C80G, at most 0.026.

As to G19U A54U C72U, the nonsense suppression is at most 0.026. In the case of A30G C80A it was at most 0.026. In the case of C1G G7A G66C A74C it was at most 0.026. G18U U76G: the nonsense suppression is at most 0.026. The result for A33U G86C reads at most 0.026; that for U17C C29A, at most 0.026; that for C1G G7U A60C, at most 0.026. In the case of C12U U16C it was 0.853; in that of U2C C12A A30U, at most 0.026. In the case of A31C U55A U58G C64U A74C it was at most 0.026. As for U63G C80U, the nonsense suppression was at most 0.026. In the case of A24C A33U G59U it was at most 0.026. The result for U16A G26C reads at most 0.026; that for C29A C34G U63G, at most 0.026. Turning to G10C G26A U35G, the nonsense suppression is at most 0.026.

With U17C U71A, the nonsense suppression was at most 0.026. The result for U21G A60G C77U C79U G85A reads at most 0.026; that for C12U G67C, at most 0.026; that for C34U U55A, at most 0.026.

Consider G66A, for which the nonsense suppression is at most 0.026.

For the variant U2A C12U G61U U63A, the nonsense suppression is at most 0.026. The result for G19C C68U reads at most 0.026. As to C5G C12G C29G U63C, the nonsense suppression was at most 0.026. For the variant G7A A13C C75A, the nonsense suppression was at most 0.026. The result for C3G A24U A60U U63C reads at most 0.026; that for A33C C64G C77U, at most 0.026.

With U58A C79G, the nonsense suppression is at most 0.026.

For C75A C79U, the nonsense suppression amounted to 1.21. In the case of U8G G15U A31U U63A it was at most 0.026. In the case of C5A G32A C34A it was at most 0.026; in that of C12A G18U U70C, at most 0.026; in that of C34A C64G, at most 0.026.

For U20C U22C A54U, the nonsense suppression was found to be 0.412.

Regarding G19C U55A, the nonsense suppression is at most 0.026.

Consider A30C U70C U76A, for which the nonsense suppression is at most 0.026. In the case of C1G U20C it was 0.0266; in that of A9U U57G C77A G85A, at most 0.026. In the case of A9U G25U it was at most 0.026; in that of U8C G26A G65C, at most 0.026. Take G32A U57A: the nonsense suppression is at most 0.026.

Take C5U G32C G66U C68U: the nonsense suppression is at most 0.026. Turning to A9U U17C, the nonsense suppression was 0.128.

Take A54U A62C: the nonsense suppression was at most 0.026. In the case of U16C C83U it was 0.5; in that of C11U G84A, at most 0.026; in that of U16C G25C G65A, at most 0.026. On to U17G A60C G66C C77A, for which the nonsense suppression is at most 0.026. The result for C34A G61C reads at most 0.026; that for C29A G66C C77G C79G, at most 0.026.

Consider G6U C64U G85A G86A, for which the nonsense suppression was at most 0.026.

On to A9C A14C A74U, for which the nonsense suppression was at most 0.026. Regarding A9U A31G C80A, the nonsense suppression is at most 0.026. As to U76A A87U, the nonsense suppression is at most 0.026. The result for C27A G28C reads at most 0.026; that for A60U C68G, at most 0.026; that for U4A G61C G69U, at most 0.026.

For G26C C29U G67U, the nonsense suppression was at most 0.026. In the case of G61C U71C it was 0.061.

For the origin of these results see the RNAGym collection of RNA variant scans (doi:10.1101/gad.245936.114).
